Measured values as given in paper PMC4336329 (PLoS ONE, 2015).
The campaign covered roughly 310,000 compounds. About 14,000 (4.5%) showed an effect of 50% or more. Effects have a minus sign here. The list shows a part of the results.

Biological target: human ether-à-go-go-related gene (hERG) potassium channel (human, UniProt Q12809)
Test: primary screen, population patch clamp on CHO cells stably expressing hERG
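Note: peak tail current of the secondary pulse compared with the same well before compound.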

Sequence of human ether-à-go-go-related gene (hERG) potassium channel (Q12809 whole entry, looked up): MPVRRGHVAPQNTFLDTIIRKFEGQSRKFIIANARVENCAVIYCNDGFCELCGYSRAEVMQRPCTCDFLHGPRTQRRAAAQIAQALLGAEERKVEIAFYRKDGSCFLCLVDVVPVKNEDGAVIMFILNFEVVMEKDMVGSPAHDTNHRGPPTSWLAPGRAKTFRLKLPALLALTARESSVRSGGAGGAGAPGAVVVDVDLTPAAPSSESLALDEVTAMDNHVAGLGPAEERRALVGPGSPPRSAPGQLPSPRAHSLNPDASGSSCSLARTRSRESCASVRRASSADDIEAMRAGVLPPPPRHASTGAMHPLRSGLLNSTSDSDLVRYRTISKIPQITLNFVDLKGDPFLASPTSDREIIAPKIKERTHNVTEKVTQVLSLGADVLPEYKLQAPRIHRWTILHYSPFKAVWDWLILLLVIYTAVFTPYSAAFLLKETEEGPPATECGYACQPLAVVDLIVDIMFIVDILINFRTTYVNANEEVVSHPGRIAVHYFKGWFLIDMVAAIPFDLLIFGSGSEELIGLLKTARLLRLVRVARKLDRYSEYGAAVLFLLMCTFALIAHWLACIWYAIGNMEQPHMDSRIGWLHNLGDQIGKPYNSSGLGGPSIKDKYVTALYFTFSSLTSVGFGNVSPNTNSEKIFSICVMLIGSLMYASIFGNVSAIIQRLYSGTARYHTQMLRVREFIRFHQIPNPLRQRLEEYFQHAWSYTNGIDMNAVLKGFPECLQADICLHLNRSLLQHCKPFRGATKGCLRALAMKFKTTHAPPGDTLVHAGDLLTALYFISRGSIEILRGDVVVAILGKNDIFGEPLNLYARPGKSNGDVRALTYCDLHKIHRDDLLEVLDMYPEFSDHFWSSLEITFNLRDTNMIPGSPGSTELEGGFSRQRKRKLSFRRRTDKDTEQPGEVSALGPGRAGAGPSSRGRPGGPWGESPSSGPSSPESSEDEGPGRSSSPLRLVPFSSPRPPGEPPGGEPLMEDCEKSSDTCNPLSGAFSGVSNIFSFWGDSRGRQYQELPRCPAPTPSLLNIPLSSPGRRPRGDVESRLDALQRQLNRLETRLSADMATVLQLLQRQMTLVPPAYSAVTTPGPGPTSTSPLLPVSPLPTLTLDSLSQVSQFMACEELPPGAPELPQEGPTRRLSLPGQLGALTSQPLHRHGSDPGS

SMILES | hERG current change (%, negative = inhibition) at 10uM [%]
CCOC(=O)C1CCCN(Cc2cccs2)C1 (stereo not shown) | -4.36
CCOC(=O)c1cc(-c2ccc(F)cc2)n(CC(=O)N2CCCC2)c1C | -2.89
CC(C)(C)c1ccc(OCC(=O)NNC(=O)Nc2ccccc2)cc1 | -8.9
CC(C)(C)C(=O)Nc1c(Cl)cccc1OC(F)(F)F | 10.7
NC(=O)c1ccc(N2CCOCC2)nc1 | 23.6
COc1ccc(C(=O)Nc2ccnn2C2CCN(C(=O)c3cc(C)on3)CC2)cc1 | 2.28
CC(C(=O)Nc1ccc2nccnc2c1)N1C(=O)C2C3C=CC(C3)C2C1=O (stereo not shown) | 4.05
Nc1nonc1-n1nnc(C(=O)N/N=C/c2ccc(Br)cc2)c1-c1ccc2c(c1)OCO2 | 25.4
CCOC(=O)c1[nH]c(C)c(C(=O)Nc2ccc(C)cc2C)c1C | -1.41
Cc1ccc(C(=O)N2CCCCC2)cc1NC1=C(Cl)C(=O)N(Cc2ccccc2)C1=O | -22
COc1cc2c(=O)n(Cc3ccccc3)c(=O)n(CC(=O)NCCc3ccccc3)c2cc1OC | 0.36
COc1ccc(C2Nc3ccccc3C(=O)N2Cc2ccco2)cc1COc1ccc([N+](=O)[O-])cc1 (stereo not shown) | -7.23
COc1ccc(-n2nc(C(=O)NCC(=O)NCCCN3CCOCC3)c3ccccc3c2=O)cc1Cl | -12.6
CCC(C)C12CN3CCN(CC(C)(C3)C1O)C2 (stereo not shown) | 9.31
c1ccc(-c2noc(CSc3nnc(Cc4cccs4)n3-c3ccccc3)n2)cc1 | -17.8
O=C(COC(=O)Cc1cn2ccsc2n1)NCc1ccc2c(c1)OCO2 | -15.2
Cc1ccc(C)c(NC(=O)CN(C)C(=O)CN2C(=O)C3CCCCC3C2=O)c1 (stereo not shown) | 10
Cc1ccc(NC(=O)COC(=O)CCc2ccc(S(=O)(=O)N3CCOCC3)cc2)cc1C | -6.09
C(=N\Nc1ccccn1)/c1ccc(N2CCOCC2)cc1 | 3.55
O=c1cc(CN2CCN(c3cccc(Cl)c3)CC2)c2cc(O)c(-c3ccccc3)cc2o1 | 17.7
Cc1c(C(=O)N(C)CCc2cnn(C)c2)oc2c(F)cccc12 | 4.52
CC1(C)CC(=O)C2=C(C1)Nc1ccccc1N(C(=O)C1CC1)C2c1ccco1 (stereo not shown) | -16.7

SMILES | hERG current change (%, negative = inhibition) at 10uM [%]
COC(=O)c1cccc(N(C(=O)CNC(=O)c2cccs2)C(C(=O)NCC2CCCO2)c2ccc(OC)c(OC)c2)c1 (stereo not shown) | 18.6
Cc1cc(OCC(=O)N2CCOCC2)ccc1NC(=O)c1ccccc1C | 22.4
Cc1ccc2cc(COC(=O)c3ccco3)c(=O)[nH]c2c1 | 8.25
COc1cccc(-c2coc3cc4oc(=O)c(CC(=O)O)c(C)c4cc23)c1 | 25.9
Cc1cc(NC(=O)CSc2cn(CCNC(=O)c3ccc(F)cc3)c3ccccc23)no1 | -37.2
O=C(c1ccc(Cl)c(S(=O)(=O)N2CCCC2)c1)N1CCN(c2ccccn2)CC1 | -31.3
COc1ccccc1N1CCN(Cc2nc(N)nc(Nc3ccc(C)c(Cl)c3)n2)CC1 | -75.5
Cc1cccc(OCC(O)CN2C(C)(C)CC(O)CC2(C)C)c1C (stereo not shown) | -51.3
CCCn1cc(CN2CCC(C(=O)Nc3cccc(-c4cscn4)c3)CC2)c(C)n1 | -45.3
CCCn1c(NCc2cc(C)ccc2O)nc2ccccc21 | -4.47
COc1cc(/C=N/Nc2nc(C)cc(=O)[nH]2)ccc1OC(=O)c1cccnc1 | 13.3
CCOc1ccccc1C(=O)OCC(=O)NCCNC(=O)COC(=O)c1ccccc1OCC | 5.95
Cc1ccccc1-c1ccc(CN2CCN(C)C(CCO)C2)cc1 (stereo not shown) | -14.1
Cc1cc(C)c(C)c(Oc2ncnc(N)c2[N+](=O)[O-])c1 | 0.646
CCOC(=O)NNc1nncc2ccccc12.Cl | 2.17
Cc1[nH][nH]c(=O)c1C=NCc1cccc(C(F)(F)F)c1 | 15.4
Fc1ccccc1-c1nc(-c2ccc(Br)o2)no1 | 9.97
COc1ccc2c(c1)c(C(=O)CN1CCN(C)CC1)c(C)n2Cc1ccccc1 | -35
Cc1nc(-c2nc(-c3c(C(=O)NNC(=O)Nc4ccccc4)noc3C)cs2)cs1 | 9.28
C/C(=N\Nc1nc(-c2ccccc2O)nc2ccccc12)c1ccccc1 | 10.9
Cc1ccc(O)c(NC(=O)c2cc(C)no2)c1 | 16.2
O=C(N/N=C\c1ccco1)Nc1cccc(Cl)c1 | -5.83

SMILES | hERG current change (%, negative = inhibition) at 10uM [%]
Cc1onc(-c2ccccc2Cl)c1C(=O)NCCn1c(C)cc2ccccc21 | -2.68
CCN(CC(=O)NC1CCS(=O)(=O)C1)S(=O)(=O)c1cccc(C(C)=O)c1 (stereo not shown) | 14.1
COc1ccccc1-c1noc(CSc2nc(C)cc(=O)[nH]2)n1 | 20.1
CNc1nc(Sc2ccccc2)cc(C(F)(F)F)n1 | 15
CCS(=O)(=O)N1CCC(c2nc3ccccc3[nH]2)CC1 | 7.94
COc1ccccc1NS(=O)(=O)c1cc(NC(=O)c2cc[n+]([O-])cc2)ccc1N1CCCC1 | 7.45
CCN(CC)c1ccc(CN(C(=O)c2ccco2)C2CCS(=O)(=O)C2)cc1 (stereo not shown) | -15.4
COCCC(=O)N1CCC(Oc2ccc(C(=O)N3CCCCC3CCO)cc2)CC1 (stereo not shown) | 6.68
CNC(=O)c1cc2c(ccc3ccccc32)o1 | -5.82
CCN(CC)C(=S)NC(=O)Cc1ccccc1 | 16.1
Cc1ccsc1C(=O)OCc1csc(-c2ccccc2)n1 | -14
C[C@H](CS)C(=O)N1CCC[C@H]1C(=O)O | 1.54
Cc1ccc(-c2nc3sc4c(N)ncnc4c3c3c2CCCC3)cc1 | 7.94
CS(=O)(=O)Nc1ccccc1C(=O)NCC1(N2CCCCC2)CCCCC1 | -8.32
CCN(CC)CCCC1(CN)OCCc2ccccc21.Cl (stereo not shown) | 7.48
CCCOc1ccc(C(=O)O)cc1 | -0.0982
CC1(CCc2ccccc2)NC(=S)N(c2ccccc2)N1 (stereo not shown) | 21
COc1ccc(/C(N)=N/OC(=O)Cc2ccc(OC)c(OC)c2)cc1 | 8.67
CCCOc1ccc(-c2cnc(N)s2)cc1 | -4.49
COc1cccc(Nc2nc(CN3CCOCC3)nc3sc4c(c23)CCCC4)c1 | -53.1
O=C(Nc1cccnc1)c1ccc(F)c(S(=O)(=O)N2CCOCC2)c1 | -0.459
CCOc1ccccc1CNS(=O)(=O)c1ccc2c(c1)C(C)(C)C(=O)N2C | -13.5

SMILES | hERG current change (%, negative = inhibition) at 10uM [%]
CCc1nn(CCCC(=O)N2CCN(c3cccc(C)c3C)CC2)c(=O)c2cc3occc3n12 | -24.9
Cc1ccc(N(CC(=O)NC2CCCCC2)C(=O)CNC(=O)c2ccco2)c(C)c1 | -0.436
COc1ccc2[nH]c3c(=O)n(CCc4ccccc4)cnc3c2c1 | -6.62
CCOC(=O)c1nnc(-c2cccs2)nc1NC(C)C | -32.2
O=C(NCCO)c1c(O)c2cccc3c2n(c1=O)CC3 | 12.7
Cc1cccc2nc(-c3ccccc3)nc(N3CCC(O)(c4ccc(Cl)cc4)CC3)c12 | 10.1
Cc1snc(S(=O)(=O)Cc2ccccc2Cl)c1C#N | -7.06
CC(/C=N/n1c(COc2ccccc2)n[nH]c1=S)=C\c1ccco1 | 14.3
COc1cc(CC(=O)OCc2ccccc2F)cc(OC)c1OC | 4.36
CCSc1nc(-c2ccc(OC)cc2)cc(-c2ccc(OC)cc2)c1C#N | 18.4
COc1ccc2[nH]c(=O)c(C(c3nnnn3C3CCCC3)N3CCN(Cc4ccc5c(c4)OCO5)CC3)cc2c1 (stereo not shown) | -35.3
COc1ccc(-c2nc(CSCC(=O)NC3CC3)c(C)o2)cc1OC | 24.5
O=C(N/N=C/c1cccs1)c1ccc2nc[nH]c2c1 | 6.14
CCOC(=O)[C@H]1[C@H]2COc3ccc(Br)cc3[C@@H]2N2C(=O)CN(Cc3ccccc3)C(=O)[C@@]12C | -4.29
Cn1cc(/C=N/n2cnc3sc4c(c3c2=O)CCCC4)c2ccccc21 | 1.33
O=C(O)CSc1nnc(-c2ccc(Cl)cc2Cl)n1-c1ccc(Cl)cc1 | 8.03
COc1ccc(NC(=O)COC(=O)c2ccc(OC)c(S(=O)(=O)N3CCCC3)c2)cc1OC | 4.45
Cc1ccc(/C=C2\SC(=S)N(CCC(=O)NNC(=O)c3cccnc3)C2=O)cc1 | 1.06
Cn1c(SCC(=O)c2ccccc2F)nnc1C1CC1 | 7.81
COc1ccc(NC(=S)NC(=O)c2cncc(Br)c2)c(OC)c1 | 16
Cc1cc(N2CCN(C)CC2)nc2ccc(NC(=S)N3CCN(c4ccc(Cl)cc4)CC3)cc12 | 15.5
CC1CCN(CC(O)CN2c3ccccc3Sc3ccccc32)CC1 (stereo not shown) | -59.2
